# From the supplement of paper PMC8728848
# This is one part of the list.
# What was measured:
# Test in all cases: glycan array binding signal (z-score within array); higher = stronger binding
# Conditions in all cases: glycan notation: IUPAC condensed, linker removed
# [1] = target: Fuc(a1-2)Gal(b1-4)GlcNAc(b1-3)Gal(b1-4)GlcNAc(b1-3)Gal(b1-4)GlcNAc
# Outline: (§1)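 Glycan array data were curated from 3228 arrays in the Consortium for Functional Glycomics database and kept only where the protein sequence was available. Glycan names were converted to IUPAC-condensed notation, and columns mapping to the same glycan were averaged. The binding signal is a within-array Z-score, averaged across arrays of the same protein sequence at different concentrations or buffers and across linkers. Negative Z-scores can be read as non-binding.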
# [2] = target: Fuc(a1-2)Gal(b1-4)GlcNAc(b1-3)GalNAc
# Outline: as §1
# [3] = target: Fuc(a1-2)Gal(b1-4)GlcNAc(b1-3)[Fuc(a1-2)Gal(b1-4)GlcNAc(b1-6)]GalNAc
# Outline: as §1
# [4] = target: Fuc(a1-2)Gal(b1-4)GlcNAc(b1-3)[Fuc(a1-3)[Gal(b1-4)]GlcNAc(b1-6)]Gal(b1-4)Glc
# Outline: as §1
# [5] = target: Fuc(a1-2)Gal(b1-4)GlcNAc(b1-6)GalNAc
# Outline: as §1
# [6] = target: Fuc(a1-2)Gal(b1-4)GlcNAc6S
# Outline: as §1
# [7] = target: Fuc(a1-2)Gal(b1-4)[Fuc(a1-3)]GlcNAc
# Outline: as §1
# [8] = target: Fuc(a1-2)Gal(b1-4)[Fuc(a1-3)]GlcNAc(b1-2)Man(a1-3)[Fuc(a1-2)Gal(b1-4)[Fuc(a1-3)]GlcNAc(b1-2)Man(a1-6)]Man(b1-4)GlcNAc(b1-4)[Fuc(a1-6)]GlcNAc
# Outline: as §1
# [9] = target: Fuc(a1-2)Gal(b1-4)[Fuc(a1-3)]GlcNAc(b1-2)[Fuc(a1-2)Gal(b1-4)[Fuc(a1-3)]GlcNAc(b1-4)]Man(a1-3)[Fuc(a1-2)Gal(b1-4)[Fuc(a1-3)]GlcNAc(b1-2)Man(a1-6)]Man(b1-4)GlcNAc(b1-4)GlcNAc
# Outline: as §1
# [10] = target: Fuc(a1-2)Gal(b1-4)[Fuc(a1-3)]GlcNAc(b1-3)Gal(b1-4)[Fuc(a1-3)]GlcNAc
# Outline: as §1
# [11] = target: Fuc(a1-2)Gal(b1-4)[Fuc(a1-3)]GlcNAc(b1-3)Gal(b1-4)[Fuc(a1-3)]GlcNAc(b1-3)Gal(b1-4)[Fuc(a1-3)]GlcNAc
# Outline: as §1
# [12] = target: Fuc(a1-2)Gal(b1-4)[Fuc(a1-3)]GlcNAc(b1-3)GalNAc
# Outline: as §1
# [13] = target: Fuc(a1-2)Gal(b1-4)[Fuc(a1-3)]GlcNAc(b1-3)[Neu5Ac(a2-6)Gal(b1-4)GlcNAc(b1-6)]Gal(b1-4)Glc
# Outline: as §1
# [14] = target: Fuc(a1-2)Gal3S(b1-4)GlcNAc
# Outline: as §1
# [15] = target: Fuc(a1-2)Gal6S(b1-3)GlcNAc
# Outline: as §1
# [16] = target: Fuc(a1-2)Gal6S(b1-3)GlcNAc6S
# Outline: as §1
# Fuc(a1-2)Gal6S(b1-4)Glc = target: Fuc(a1-2)Gal6S(b1-4)Glc
# Outline: as §1
# [17] = target: Fuc(a1-2)Gal6S(b1-4)Glc6S
# Outline: as §1
# Fuc(a1-2)[Gal(a1-3)]Gal = target: Fuc(a1-2)[Gal(a1-3)]Gal
# Outline: as §1
# [18] = target: Fuc(a1-2)[Gal(a1-3)]Gal(b1-3)GalNAc
# Outline: as §1
# [19] = target: Fuc(a1-2)[Gal(a1-3)]Gal(b1-3)GalNAc(b1-3)Gal(a1-4)Gal(b1-4)Glc
# Outline: as §1
# [20] = target: Fuc(a1-2)[Gal(a1-3)]Gal(b1-3)GlcNAc
# Outline: as §1
# [21] = target: Fuc(a1-2)[Gal(a1-3)]Gal(b1-3)GlcNAc(b1-2)Man(a1-3)[Fuc(a1-2)[Gal(a1-3)]Gal(b1-3)GlcNAc(b1-2)Man(a1-6)]Man(b1-4)GlcNAc(b1-4)GlcNAc
# Outline: as §1
# [22] = target: Fuc(a1-2)[Gal(a1-3)]Gal(b1-3)GlcNAc(b1-2)Man(a1-3)[Fuc(a1-2)[Gal(a1-3)]Gal(b1-3)GlcNAc(b1-2)Man(a1-6)]Man(b1-4)GlcNAc(b1-4)[Fuc(a1-6)]GlcNAc
# Outline: as §1
# [23] = target: Fuc(a1-2)[Gal(a1-3)]Gal(b1-3)GlcNAc(b1-3)GalNAc
# Outline: as §1
# [24] = target: Fuc(a1-2)[Gal(a1-3)]Gal(b1-3)GlcNAc(b1-6)GalNAc
# Outline: as §1
# [25] = target: Fuc(a1-2)[Gal(a1-3)]Gal(b1-4)Glc
# Outline: as §1
# [26] = target: Fuc(a1-2)[Gal(a1-3)]Gal(b1-4)GlcNAc
# Outline: as §1
# [27] = target: Fuc(a1-2)[Gal(a1-3)]Gal(b1-4)GlcNAc(b1-2)Man
# Outline: as §1
# [28] = target: Fuc(a1-2)[Gal(a1-3)]Gal(b1-4)GlcNAc(b1-2)Man(a1-3)[Fuc(a1-2)[Gal(a1-3)]Gal(b1-4)GlcNAc(b1-2)Man(a1-6)]Man(b1-4)GlcNAc(b1-4)GlcNAc
# Outline: as §1
# [29] = target: Fuc(a1-2)[Gal(a1-3)]Gal(b1-4)GlcNAc(b1-2)Man(a1-3)[Fuc(a1-2)[Gal(a1-3)]Gal(b1-4)GlcNAc(b1-2)Man(a1-6)]Man(b1-4)GlcNAc(b1-4)[Fuc(a1-6)]GlcNAc
# Outline: as §1
# [30] = target: Fuc(a1-2)[Gal(a1-3)]Gal(b1-4)GlcNAc(b1-3)GalNAc
# Outline: as §1
# [31] = target: Fuc(a1-2)[Gal(a1-3)]Gal(b1-4)GlcNAc(b1-3)[Fuc(a1-2)[Gal(a1-3)]Gal(b1-4)GlcNAc(b1-6)]GalNAc
# Outline: as §1
# [32] = target: Fuc(a1-2)[Gal(a1-3)]Gal(b1-4)GlcNAc(b1-6)GalNAc
# Outline: as §1
# [33] = target: Fuc(a1-2)[Gal(a1-3)]Gal(b1-4)[Fuc(a1-3)]Glc
# Outline: as §1
# [34] = target: Fuc(a1-2)[Gal(a1-3)]Gal(b1-4)[Fuc(a1-3)]GlcNAc
# Outline: as §1
# [35] = target: Fuc(a1-2)[Gal(a1-3)]Gal(b1-4)[Fuc(a1-3)]GlcNAc(b1-3)GalNAc
# Outline: as §1
# [36] = target: Fuc(a1-2)[Gal(a1-4)]Gal(b1-4)GlcNAc
# Outline: as §1
# [37] = target: Fuc(a1-2)[GalNAc(a1-3)]Gal
# Outline: as §1
# [38] = target: Fuc(a1-2)[GalNAc(a1-3)]Gal(b1-3)GalNAc(a1-3)[Fuc(a1-2)]Gal(b1-4)GlcNAc
# Outline: as §1
# [39] = target: Fuc(a1-2)[GalNAc(a1-3)]Gal(b1-3)GalNAc(b1-3)Gal(a1-4)Gal(b1-4)Glc
# Outline: as §1
# [40] = target: Fuc(a1-2)[GalNAc(a1-3)]Gal(b1-3)GlcNAc
# Outline: as §1
# [41] = target: Fuc(a1-2)[GalNAc(a1-3)]Gal(b1-3)GlcNAc(b1-2)Man(a1-3)[Fuc(a1-2)[GalNAc(a1-3)]Gal(b1-3)GlcNAc(b1-2)Man(a1-6)]Man(b1-4)GlcNAc(b1-4)GlcNAc
# Outline: as §1
# [42] = target: Fuc(a1-2)[GalNAc(a1-3)]Gal(b1-3)GlcNAc(b1-2)Man(a1-3)[Fuc(a1-2)[GalNAc(a1-3)]Gal(b1-3)GlcNAc(b1-2)Man(a1-6)]Man(b1-4)GlcNAc(b1-4)[Fuc(a1-6)]GlcNAc
# Outline: as §1
# [43] = target: Fuc(a1-2)[GalNAc(a1-3)]Gal(b1-3)GlcNAc(b1-3)GalNAc
# Outline: as §1
binder,measurement,setting,value
rCnSL-proB (Clitocybe nebularis) (protein) PTFSPIFALLAFLPFGTLASLLPQTQLVFRINPNLPGPNDVFVGYRGTNNVVGAIYERDGIKDTPMNNGADAELGPGSYITDDLFTAQIFASGSAGNNPGTTATVCKIYADGVQWRGAPKGYLPVLYFGNGQAAEQTRQTYLQGLDIPGTAIRFANLAKTPNQGPTAPRQMVVPSGGLQTLLKASCFPANHAALPQVLSYFNVRAALPPGWNIRTGPEFPNWTN,glycan array binding signal (z-score),[1],-0.076
same,glycan array binding signal (z-score),[2],-0.693
same,glycan array binding signal (z-score),[3],-0.259
same,glycan array binding signal (z-score),[4],0.483
same,glycan array binding signal (z-score),[5],-0.457
same,glycan array binding signal (z-score),[6],-0.44
same,glycan array binding signal (z-score),[7],0.228
same,glycan array binding signal (z-score),[8],0.321
same,glycan array binding signal (z-score),[9],1.38
same,glycan array binding signal (z-score),[10],0.072
same,glycan array binding signal (z-score),[11],0.04
same,glycan array binding signal (z-score),[12],0.251
same,glycan array binding signal (z-score),[13],-0.539
same,glycan array binding signal (z-score),[14],-0.528
same,glycan array binding signal (z-score),[15],-0.725
same,glycan array binding signal (z-score),[16],0.11
same,glycan array binding signal (z-score),Fuc(a1-2)Gal6S(b1-4)Glc,-0.455
same,glycan array binding signal (z-score),[17],-0.918
same,glycan array binding signal (z-score),Fuc(a1-2)[Gal(a1-3)]Gal,-0.602
same,glycan array binding signal (z-score),[18],0.198
same,glycan array binding signal (z-score),[19],-0.397
same,glycan array binding signal (z-score),[20],-0.113
same,glycan array binding signal (z-score),[21],-0.043
same,glycan array binding signal (z-score),[22],0.259
same,glycan array binding signal (z-score),[23],-0.457
same,glycan array binding signal (z-score),[24],-0.311
same,glycan array binding signal (z-score),[25],-0.068
same,glycan array binding signal (z-score),[26],-0.77
same,glycan array binding signal (z-score),[27],-0.166
same,glycan array binding signal (z-score),[28],-0.255
same,glycan array binding signal (z-score),[29],0.846
same,glycan array binding signal (z-score),[30],-0.036
same,glycan array binding signal (z-score),[31],0.126
same,glycan array binding signal (z-score),[32],-0.048
same,glycan array binding signal (z-score),[33],0.298
same,glycan array binding signal (z-score),[34],0.125
same,glycan array binding signal (z-score),[35],0.632
same,glycan array binding signal (z-score),[36],-0.215
same,glycan array binding signal (z-score),[37],-0.176
same,glycan array binding signal (z-score),[38],1.5
same,glycan array binding signal (z-score),[39],-0.508
same,glycan array binding signal (z-score),[40],0.135
same,glycan array binding signal (z-score),[41],-0.127
same,glycan array binding signal (z-score),[42],3.9
same,glycan array binding signal (z-score),[43],0.307
